According to paper PMC12136788:
Some of the results follow.

T1: UNK ZnF1-3 (human, UniProt Q9C0B0 31-174)
T1 sequence: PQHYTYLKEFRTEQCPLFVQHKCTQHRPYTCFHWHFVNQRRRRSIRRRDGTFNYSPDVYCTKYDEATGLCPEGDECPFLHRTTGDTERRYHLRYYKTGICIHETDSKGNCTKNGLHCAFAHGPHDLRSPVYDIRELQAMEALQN

B1: chr6:148129406:148129407:-_ENSMUSG00000030304_ENSMUST00000136008|mus_mus|FALSE|FALSE (ssRNA)
RNA: GGGAGUUCUACAGUCCGACGAUCCUAGGCUGCUUCAGACUUCAGUCUUGUAUGGACACUGCCUUGCCUGUCUCAGAUGUCCAGUUUUCCACUACUCAUAAGCAUACAACACUCAACUUUACCCUUCACAUCUUACAAACUGUUCAACAGAGGAUUGAGCAUCA
B2: chr10:33214929:33214930:-_ENSG00000150093_ENST00000302278|hu_hu|hu_hu_hu_mus_True|38_38 (ssRNA)
RNA: GGGAGUUCUACAGUCCGACGAUCAACAAGUUCAUUGAAAAACUCUCCUCUGUCAGUAAGACUAAGCACAUUUUUGUAGCUAAAUGGGCUGGUGCAGUUCUGUUCACUUGUACAAGGAUUUCUUAGCUUUGCUGGGGUUGUGCUCAACAGAGGAUUGAGCAUCA
B3: chr16:45737064:45737065:-_ENSMUSG00000033157_ENSMUST00000066983|mus_mus|motif|central (ssRNA)
RNA: GGGAGUUCUACAGUCCGACGAUCAAGUGCAUGAUAUUGUGUCACCAAUCCAUCUGCAGCAGUAGCUAUACCAAUAAGAGCGGUGACUUUUUCCGGCCGUGCAAUUGCAGCAUGCAGCAUGAGCCAUCCACCAAGACUGGAUCCCAACAGAGGAUUGAGCAUCA
B4: chr14:57521723:57521724:+_ENSMUSG00000021945_ENSMUST00000022511|mus_mus|FALSE|FALSE (ssRNA)
RNA: GGGAGUUCUACAGUCCGACGAUCUACAGGUUCAAUAAAAACAACGUCAUCAUCAUCUUCUACUGAUGAGUUCUGAAACUUACUAGAUCUAGACACUAAAGGAUUAGGUGGGCCACUAAAUGAAUUUCCUACGUUCGUGAGACUCAACAGAGGAUUGAGCAUCA
B5: chr4:184628046:184628047:+_ENSG00000168538_ENST00000334690|hu_mus|FALSE|FALSE (ssRNA)
RNA: GGGAGUUCUACAGUCCGACGAUCGAGGCCUGAGAACAUGAAGGCGUCACUGGGCUCCACAGAAAUCUCCACAUCUUGAACCAAGUCGGUCUUAUUCUGCAGGUGGUACCUGACGGGCAACGACUCUCUGACACGUCCAAACGACAACAGAGGAUUGAGCAUCA
B6: chr2:42509997:42509998:+_ENSG00000143924_ENST00000318522|hu_mus|hu_hu_hu_mus_True|58_68 (ssRNA)
RNA: GGGAGUUCUACAGUCCGACGAUCUCGCUGAGUCCUCUCCUCAUAAUUAAACAGGACUACCACUGAGGCAAUGAAAUAAACUAUUUUCCCUGUGGGAAGCAGGUAUACAUUCGCUCUACAGUCCUUUCCUCGAUAACCGUAUACCAACAGAGGAUUGAGCAUCA

Molecular target: T1, UNK ZnF1-3
Test: nsRBNS (natural sequence RNA bind-n-seq); RBNS binding buffer (assumed for nsRBNS): 25 mM Tris pH 7.5, 150 mM KCl, 3 mM MgCl2, 0.01% Triton X-100, 500 ug/ml BSA, 20 U/ml SUPERase-In, 4 C; UNK is unkempt and MSI1 is Musashi-1; names of the RNAs are library labels; protein concentration not given here; high values mean tight binding

Which binding signal does the source give for B1 here?
The binding signal was 0.833 enrichment R.

How did the binding signal turn out when B2 was run?
Its binding signal is 0.805 enrichment R.

Which binding signal does the source give for B3 here?
Its binding signal is 1.25 enrichment R.

Which binding signal does the source give for B4 here?
Its binding signal is 0.722 enrichment R.

How did the binding signal turn out when B5 was run?
Its binding signal is 1.21 enrichment R.

With B6 as the binder, how does the binding signal read?
Its binding signal is 1.53 enrichment R.
